# Reference: article PMC4336329 (PLoS ONE, 2015)
# About 14,000 (4.5%) of roughly 310,000 compounds showed an effect of 50% or more. The effect is printed as a negative number. The list shows a part of the results.
# Target: human ether-à-go-go-related gene (hERG) potassium channel (human, UniProt Q12809)
# Assay: primary screen, population patch clamp on CHO cells stably expressing hERG
# 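Note: peak tail current of the secondary pulse compared with the same well before compound.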
# Chain of human ether-à-go-go-related gene (hERG) potassium channel (Q12809 whole entry, looked up): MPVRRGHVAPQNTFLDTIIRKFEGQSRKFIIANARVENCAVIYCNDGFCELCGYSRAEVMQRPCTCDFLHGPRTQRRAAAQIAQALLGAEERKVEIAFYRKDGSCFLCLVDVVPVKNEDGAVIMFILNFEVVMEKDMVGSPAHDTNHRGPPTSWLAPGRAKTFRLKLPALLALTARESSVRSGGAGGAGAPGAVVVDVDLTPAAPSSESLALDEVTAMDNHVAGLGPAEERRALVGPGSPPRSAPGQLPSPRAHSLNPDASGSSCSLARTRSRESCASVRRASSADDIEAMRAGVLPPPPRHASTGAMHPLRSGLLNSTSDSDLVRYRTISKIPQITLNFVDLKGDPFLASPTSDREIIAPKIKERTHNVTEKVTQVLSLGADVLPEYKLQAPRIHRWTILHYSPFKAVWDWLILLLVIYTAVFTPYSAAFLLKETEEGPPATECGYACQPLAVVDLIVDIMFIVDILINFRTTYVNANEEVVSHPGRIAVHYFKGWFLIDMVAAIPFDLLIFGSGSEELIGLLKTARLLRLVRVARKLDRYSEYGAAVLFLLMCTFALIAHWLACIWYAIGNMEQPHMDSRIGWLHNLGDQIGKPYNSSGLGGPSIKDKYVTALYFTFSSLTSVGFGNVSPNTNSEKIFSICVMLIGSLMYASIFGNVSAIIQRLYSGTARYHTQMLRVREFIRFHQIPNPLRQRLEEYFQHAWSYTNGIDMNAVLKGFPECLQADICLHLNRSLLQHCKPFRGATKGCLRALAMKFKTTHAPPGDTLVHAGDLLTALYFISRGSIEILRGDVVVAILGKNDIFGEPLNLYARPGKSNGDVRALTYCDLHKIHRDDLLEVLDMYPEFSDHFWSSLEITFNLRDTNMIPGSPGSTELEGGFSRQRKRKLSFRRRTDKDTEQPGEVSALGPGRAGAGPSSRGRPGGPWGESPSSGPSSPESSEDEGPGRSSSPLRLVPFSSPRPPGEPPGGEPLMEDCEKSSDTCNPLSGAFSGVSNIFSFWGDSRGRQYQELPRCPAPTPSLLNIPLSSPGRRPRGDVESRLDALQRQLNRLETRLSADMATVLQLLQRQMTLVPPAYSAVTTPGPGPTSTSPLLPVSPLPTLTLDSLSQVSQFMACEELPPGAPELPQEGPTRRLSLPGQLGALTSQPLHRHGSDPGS
row,Structure (SMILES),"hERG current change (%, negative = inhibition) at 10uM"
1,CSc1nc(Oc2ccc(Cl)cc2)c2sccc2n1,13.5%
2,CCCCNC(=S)N(CCO)Cc1cc2cc3c(cc2[nH]c1=O)OCCO3,8.09%
3,CCOC(C[n+]1c(-c2ccccc2)cc(C)cc1-c1ccccc1)OCC.[O-][Cl+3]([O-])([O-])[O-],3.9%
4,OCCCNc1nc(-c2ccc(Cl)cc2)nnc1-c1ccc(Br)cc1,-61.5%
5,Cc1ccc2[nH]c(=O)c(CN(CCCN(C)C)C(=S)NCCc3ccccc3)cc2c1,-42%
6,COc1ccccc1-n1c(SCC(=O)Nc2ccc(F)cc2)nc2c(c1=O)SCC2,-5.18%
7,Cc1ccc(C(=O)Nc2ccc(Cc3ccncc3)cc2)cc1[N+](=O)[O-],-19.6%
8,CCC1(c2ccccc2)NC(=O)N(CC(=O)Nc2ccc(S(=O)(=O)NC3=NCCCCC3)cc2)C1=O (stereo not drawn),22.5%
9,COC(=O)CSc1nc2ccc(NC(C)=O)cc2s1,13.4%
10,COc1ccc(NC(=O)CN(C)C(=O)c2sc3cc(Cl)ccc3c2Cl)cc1,-3.61%
11,CCn1nc(NC(=O)c2ccncc2)c2cc3ccc(C)cc3nc21,-3.96%
12,CCOP(=O)(OCC)C(NC(=O)c1ccc(C)cc1)C(Cl)(Cl)Cl (stereo not drawn),-2.08%
13,O=c1c2cccnc2[nH]c(=S)n1Cc1ccccc1,21.1%
14,Cc1cc(C)c(S(=O)(=O)Nc2cccc(/C=C/C(=O)O)c2)c(C)c1,0.779%
15,Cc1c(C(=O)Nc2ccc(C(=O)O)cc2)cnn1C,17.5%
16,Cc1ccc2c(c1)c1ncnc(N3CCc4ccccc4C3)c1n2C,0.68%
17,COc1ccccc1CNCC(O)(c1ccc(Cl)cc1)c1ccc(Cl)cc1,-13.7%
18,Cc1[nH]c(=O)[nH]c(=O)c1S(=O)(=O)N1CCCC(C(=O)NCc2ccc3c(c2)OCO3)C1 (stereo not drawn),18%
19,O=c1oc2ccc3ccccc3c2cc1-c1nnc(-c2ccccc2)o1,13.5%
20,COc1ccc(CN2C(=O)c3cccnc3C2=O)cc1S(=O)(=O)NCc1ccco1,18.1%
21,CC1CCc2cc(F)ccc2N1C(=O)CN1C(=O)c2ccccc2C1=O (stereo not drawn),-2.92%
22,Cc1ccccc1NC(=O)NCCCN1CCCC1=O,22.8%
23,CN1C(=O)C(=Cc2ccccc2OCc2ccccc2Cl)C(=O)N(C)C1=O,12.6%

row,Structure (SMILES),"hERG current change (%, negative = inhibition) at 10uM"
1,Cc1ccc(N=C2C(=O)Nc3ccccc32)cc1C,7.9%
2,Cc1sc2nc(SCC(=O)Nc3ccc(S(=O)(=O)NCCCC(=O)O)cc3)[nH]c(=O)c2c1C,19.6%
3,CCOc1ccc(S(=O)(=O)Nc2cc(SCC(=O)O)c(O)c3ccccc23)cc1,-0.126%
4,O=C(O)c1ccc(-n2cccc2/C=C2/NC(=O)N(c3ccccc3)C2=O)cc1,5.15%
5,COC(=O)C[C@H]1c2ccccc2S(=O)(=O)N1Cc1ccc(OC)cc1,9.61%
6,Cc1noc(C)c1S(=O)(=O)N1CCC(C(=O)N2CCN(C(=O)c3ccco3)CC2)CC1,11.2%
7,O=C(CSc1nnnn1-c1ccc(O)cc1)NC1CCCCC1,1.35%
8,CCOc1ccc2nc(NCCNC(=O)C(C)(C)C)c(C)cc2c1,-46.1%
9,CCC(C(=O)Nc1ccccc1F)n1nc(C)c2c(C)n(-c3ccccc3)nc2c1=O (stereo not drawn),-21.6%
10,CCN1CCN(c2cc(C)c3cc(NC(=O)c4ccc(Br)o4)ccc3n2)CC1,-56%
11,CN(C)CCCNc1oc(-c2ccccc2)nc1C#N,-0.779%
12,CCN(CC)CCN(Cc1cc2cc3c(cc2[nH]c1=O)OCCO3)C(=S)NCC(C)C,-4.96%
13,COc1ccc(Cl)cc1S(=O)(=O)N1CCN=C1Cc1ccccc1,-18.9%
14,COCCNC(=S)N/N=C/c1ccc(-c2ccc([N+](=O)[O-])cc2)o1,16.5%
15,CCCn1ncc(CN2CCCC(C(=O)c3cccc(OC(C)C)c3)C2)c1C (stereo not drawn),-48.8%
16,CCOc1ccc(NC(=O)CC2C(=O)N(CC)C(=S)N2NC(=O)c2ccncc2)cc1 (stereo not drawn),0.596%
17,CC(C)(C)Nc1nc(OCC(F)(F)F)nc(OCC(F)(F)F)n1,-26.4%
18,O=C(Nc1ccc2c(c1)OCO2)c1c[nH]c(=O)n(-c2ccc(F)cc2)c1=O,15.8%
19,Cc1ccc(NC(=O)CN2CCc3cc4c(cc3C2)OCCCO4)cc1C,6.47%
20,COc1ccc(CNCc2ccc(C)cc2)c(OC)c1.O=C(O)C(=O)O,-31.3%
21,CCOC(=O)/C(=C/c1ccc(F)cc1)NC(C)=O,-7.91%
22,CN(C)C(=O)Oc1ccc(NC(=O)N2CCOCC2)cc1,12.1%
